Data from PubChem BioAssay AID248 (DTP/NCI, 2004).
Toxic doses and inconclusive results are not listed. For part of its entries the source gives two or more results. The other results are left out here. An entry can have further records. The records of an entry repeat one measurement across runs, samples, wells, individuals or studies. Brackets tell where a record comes from. A, B and so on number the origins entry by entry.

Test system: L1210 leukemia ip in BDF1 mice, survival T/C
Assay: NCI In Vivo Anticancer Drug Screen. Data for tumor model L1210 Leukemia (intraperitoneal) in B6D2F1 (BDF1) mice
Conditions: endpoint: mean survival time, higher = longer survival

O=c1[nH]c2ccccc2c2cc3ccccc3cc12
T/C (dose: 200.0 mg/kg/injection, schedule: Q01DX001 (ip), vehicle: carboxymethylcellulose (CMC)): 88 % of control, 100 % of control, 162 % of control

CC1(C)CN1CC1CO1 (stereo not given)
T/C (dose: 24.0 mg/kg/injection, schedule: Q01DX Z (ip), vehicle: saline): 105 % of control and 150 % of control

CCC(O)(CC)C(C)C
T/C (dose: 200.0 mg/kg/injection, schedule: Q01DX001 (ip), vehicle: saline): 96 % of control and 156 % of control

CC1CN1C(=O)Nc1cccc2c(NC(=O)N3CC3C)cccc12 (stereo not given)
T/C (dose: 42.5 mg/kg/injection, schedule: Q01DX009 (ip), vehicle: Klucel (hydroxypropylcellulose) (HPC)): 100 % of control and 153 % of control

O=C(Nc1ccc(C2=NCCCN2)cc1)c1ccc(NC(=O)c2ccc(C3=NCCCN3)cc2)cc1
T/C (dose: 10.0 mg/kg/injection, schedule: Q01DX010 (sc), vehicle: olive oil, sesame oil, peanut oil): 124 % of control and 199 % of control

CC(CCC(=O)O)(NC(=O)c1ccc(NCc2ccc3nc(N)nc(N)c3c2)cc1)C(=O)O (stereo not given)
T/C (dose: 2.0 mg/kg/injection, schedule: Q01DX009 (ip), vehicle: saline): 116 % of control and 150 % of control

CC1(C(O)CO)OCCO1 (stereo not given)
T/C (dose: 100.0 mg/kg/injection, schedule: Q04DX002 (ip), vehicle: saline): 95 % of control and 156 % of control

NC(C/[N+]([O-])=N/O)C(=O)O (stereo not given)
T/C (dose: 800.0 mg/kg/injection, schedule: Q04DX003 (ip), vehicle: saline): 161 % of control [sample A] and 109 % of control [sample B] | T/C (dose: 1000.0 mg/kg/injection, schedule: Q04DX003 (ip), vehicle: saline): 159 % of control [sample A] and 101 % of control [sample B]

Cn1nc(Br)c(=O)n(C(c2ccccc2)c2ccccc2)c1=O
T/C (dose: 100.0 mg/kg/injection, schedule: Q01DX001 (ip), vehicle: other): 97 % of control, 102 % of control, 156 % of control
